This assay addresses T1, His-HDAC6 (human, UniProt Q9UBN7 1-1215).
T1 sequence (looked up): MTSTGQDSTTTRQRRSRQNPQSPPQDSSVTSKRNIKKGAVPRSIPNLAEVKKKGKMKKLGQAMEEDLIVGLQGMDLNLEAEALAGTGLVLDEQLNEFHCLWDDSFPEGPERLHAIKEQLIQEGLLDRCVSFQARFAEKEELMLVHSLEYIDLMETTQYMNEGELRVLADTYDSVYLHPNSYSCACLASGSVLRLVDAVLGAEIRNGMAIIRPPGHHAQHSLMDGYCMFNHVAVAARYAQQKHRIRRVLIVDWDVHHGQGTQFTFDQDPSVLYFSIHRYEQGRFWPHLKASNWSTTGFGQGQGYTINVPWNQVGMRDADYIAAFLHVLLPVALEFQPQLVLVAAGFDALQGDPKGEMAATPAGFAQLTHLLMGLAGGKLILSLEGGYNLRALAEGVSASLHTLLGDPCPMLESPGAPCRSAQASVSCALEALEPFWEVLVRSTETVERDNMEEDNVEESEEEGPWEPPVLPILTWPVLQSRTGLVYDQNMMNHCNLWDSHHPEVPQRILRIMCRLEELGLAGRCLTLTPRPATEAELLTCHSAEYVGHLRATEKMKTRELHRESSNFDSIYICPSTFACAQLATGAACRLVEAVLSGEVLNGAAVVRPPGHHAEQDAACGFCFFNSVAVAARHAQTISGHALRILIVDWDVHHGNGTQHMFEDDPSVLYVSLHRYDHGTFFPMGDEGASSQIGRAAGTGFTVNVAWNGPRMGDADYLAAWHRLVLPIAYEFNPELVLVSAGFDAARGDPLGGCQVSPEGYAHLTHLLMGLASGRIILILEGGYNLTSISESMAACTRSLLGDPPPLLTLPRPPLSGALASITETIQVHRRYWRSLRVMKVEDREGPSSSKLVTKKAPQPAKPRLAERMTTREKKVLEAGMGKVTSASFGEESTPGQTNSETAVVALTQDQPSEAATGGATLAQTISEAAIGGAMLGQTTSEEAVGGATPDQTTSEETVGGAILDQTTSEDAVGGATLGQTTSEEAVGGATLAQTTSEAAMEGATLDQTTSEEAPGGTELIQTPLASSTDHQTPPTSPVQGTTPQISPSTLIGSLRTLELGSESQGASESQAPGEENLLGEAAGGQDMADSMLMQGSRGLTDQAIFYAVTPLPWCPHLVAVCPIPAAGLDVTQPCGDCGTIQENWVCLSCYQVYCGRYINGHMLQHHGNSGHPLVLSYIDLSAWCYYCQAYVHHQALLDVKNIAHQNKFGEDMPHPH
As to the kind of experiment: pull-down.

Data on 1 molecule can be found in article PMC10516627 (Nucleic Acids Research, 2023).

B1: GST-RNF168 UDM1 and UDM2 domain ([…] aa) (domain or fragment)
chain: not shown
Turning to B1, the binding result is “binds”.
